Reference: article PMC4336329 (PLoS ONE, 2015)
Out of some 310,000 compounds screened, about 14,000 (4.5%) showed an effect of 50% or more. The effect is printed as a negative number. Some of the results follow.

The compounds below were run against human ether-à-go-go-related gene (hERG) potassium channel (human, UniProt Q12809) (assay: primary screen, population patch clamp on CHO cells stably expressing hERG).
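Note: peak tail current of the secondary pulse compared with the same well before compound.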

Chain of human ether-à-go-go-related gene (hERG) potassium channel (Q12809 whole entry, looked up): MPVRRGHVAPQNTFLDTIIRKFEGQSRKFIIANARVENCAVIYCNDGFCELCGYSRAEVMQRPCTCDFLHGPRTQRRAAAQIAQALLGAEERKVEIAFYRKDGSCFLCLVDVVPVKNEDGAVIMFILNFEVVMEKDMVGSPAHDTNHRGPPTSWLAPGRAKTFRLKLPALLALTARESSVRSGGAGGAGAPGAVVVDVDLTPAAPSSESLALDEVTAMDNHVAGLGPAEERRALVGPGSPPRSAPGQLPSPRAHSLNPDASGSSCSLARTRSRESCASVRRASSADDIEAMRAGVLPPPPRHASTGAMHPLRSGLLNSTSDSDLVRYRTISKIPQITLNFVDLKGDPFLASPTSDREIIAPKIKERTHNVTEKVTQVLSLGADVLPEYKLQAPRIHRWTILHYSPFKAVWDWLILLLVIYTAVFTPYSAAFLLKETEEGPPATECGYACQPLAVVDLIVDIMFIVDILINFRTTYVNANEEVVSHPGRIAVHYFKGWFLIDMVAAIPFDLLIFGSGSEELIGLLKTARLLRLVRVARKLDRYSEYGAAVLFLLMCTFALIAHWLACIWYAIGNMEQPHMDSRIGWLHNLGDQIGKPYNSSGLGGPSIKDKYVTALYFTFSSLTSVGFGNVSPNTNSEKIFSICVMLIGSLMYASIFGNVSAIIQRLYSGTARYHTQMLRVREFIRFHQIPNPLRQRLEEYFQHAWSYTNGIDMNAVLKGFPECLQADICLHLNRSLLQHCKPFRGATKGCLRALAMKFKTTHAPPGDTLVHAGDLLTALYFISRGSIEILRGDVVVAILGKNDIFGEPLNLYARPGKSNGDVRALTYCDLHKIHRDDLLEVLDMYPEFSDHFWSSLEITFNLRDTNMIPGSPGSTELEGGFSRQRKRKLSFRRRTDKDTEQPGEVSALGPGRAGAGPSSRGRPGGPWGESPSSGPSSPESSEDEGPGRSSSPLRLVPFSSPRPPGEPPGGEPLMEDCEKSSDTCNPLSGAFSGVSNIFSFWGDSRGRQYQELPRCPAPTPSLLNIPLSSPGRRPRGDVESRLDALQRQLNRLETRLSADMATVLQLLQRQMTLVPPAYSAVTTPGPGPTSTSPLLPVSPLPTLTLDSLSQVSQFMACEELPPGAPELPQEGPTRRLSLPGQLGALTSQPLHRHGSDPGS

SMILES	hERG current change (%, negative = inhibition) at 10uM [%]
CCCCOc1ccc(CN2CCCCC2)cc1	-16.5
CCCCN(CC)C(=O)c1ccc(-c2ccccc2)cc1	-14.8
COc1ccc(CNC(=O)CSc2ccsc2[N+](=O)[O-])cc1	-10.2
CCOC(=O)C(C(=O)OCC)C(CC(=O)C1CC1)c1ccccc1 (centres unmarked)	-0.081
CC(=O)N1N=C(c2ccccc2)OC1c1cccnc1 (centres unmarked)	-9.41
Cc1cc(C(=O)NN)c(Cl)cc1Cl	11.9
COc1ccc(/C(C)=N/NC(=O)Cn2nc([N+](=O)[O-])cc2C)cc1	12.9
Cn1c(SCC(=O)NCC2CCCO2)ncc(C(=O)Nc2ccccc2)c1=O (centres unmarked)	-22.8
Cc1nnsc1C(=O)NNc1ccc(C(C)(C)C)cc1	14.1
COc1ccccc1NC(=O)N(CCN1CCCC1)Cc1cc2cc(C)ccc2[nH]c1=O	-64.8
COc1ccccc1-n1c(SCC(=O)N2CCCC2)nnc1-c1ccccc1	10.2
CCn1c(COc2cccc(OC)c2)nnc1SCC(=O)Nc1ccccc1C(=O)OC	-16.5
CCOC(=O)N1CCN(C(=O)CSCc2nc(-c3ccccc3F)oc2C)CC1	-7.27
O=C(CCc1ccc(S(=O)(=O)N2CCOCC2)cc1)N/N=C/c1cccc(O)c1	-3.74
COc1cc([N+](=O)[O-])ccc1NC(=O)CCS(=O)(=O)c1ccc2c(c1)n(C)c(=O)c(=O)n2C	3.37
CC1CCN(CCCOc2ccc(OCc3ccccc3)cc2)CC1.O=C(O)C(=O)O	-71.4
COc1ccccc1NC(=O)N1CCC(c2nc3ccccc3o2)CC1	-6.16
Cc1cc(Cl)c2oc(C(=O)NC3CCC(O)CC3)c(C)c2c1 (centres unmarked)	15.6
O=C(NCc1c(F)cccc1F)c1cc(COc2c(F)cccc2F)on1	10.7

SMILES	hERG current change (%, negative = inhibition) at 10uM [%]
Cc1nn(-c2ccccc2)c(C)c1NC(=O)c1cccs1	15.5
CCOCCn1c(=O)c2c(nc3n2CCCN3Cc2ccccc2)n(C)c1=O	0.204
Clc1ccc2c(c1)C(N1CCNCC1)Cc1ccccc1S2.O=C(O)/C=C\C(=O)O (centres unmarked)	-54.3
COC(=O)c1ccc(COc2ccc(NC(C)=O)cc2)o1	4.32
Cc1cccc(C(C)(C)C)c1OCCOCCN1CCCC1	-20.6
Cc1ccc(-c2cc(C(=O)N/N=C/c3ccco3)n[nH]2)s1	-22.8
Cc1c(NC(=O)c2nn3c(c2Br)NC(c2ccccc2)CC3C(F)(F)F)c(=O)n(-c2ccccc2)n1C (centres unmarked)	-0.849
O=S(=O)(c1ccccc1)[C@@]1(c2ccccc2)C[C@@H]2ON=C(c3cccc(-c4ccccc4)c3)[C@@H]2C1	0.51
CCCc1cc(=O)[nH]c(=S)[nH]1	22.4
Cc1ccc(CNC(=O)C2CCC(CNS(=O)(=O)c3cccc4cccnc34)CC2)cc1 (centres unmarked)	2.76
COc1cccc(CN2CCN(Cc3c(C)nn(C(C)C)c3C)CC2CCO)c1 (centres unmarked)	-2.68
CC(C)(C)CC(=O)NC(=S)Nc1ccccc1[N+](=O)[O-]	12.2
C=CCNC(=O)C(C)N1C(=O)c2ccccc2C1=O (centres unmarked)	10.2
Nc1nc(N)n(-c2ccccc2)c(=Nc2ccccc2)n1	11.4
CNC(=O)c1ccccc1NC(=O)c1ccc(C)c(S(=O)(=O)N2CCCCC2)c1	-17.2
CCC(c1nnnn1CCc1ccccc1)N(Cc1ccco1)Cc1cc2cccc(C)c2[nH]c1=O (centres unmarked)	10
CCn1cc(/C=N\NC(=O)c2ccccc2Cl)cn1	11.7
O=C(COc1ccccc1Cl)NCCNC(=O)c1cccnc1	-3.71
OCCN=Cc1c(O)[nH]c2ccccc12	12.8

SMILES	hERG current change (%, negative = inhibition) at 10uM [%]
CC(=O)Nc1cccc(S(=O)(=O)N2CCCCCC2)c1	1.78
Cc1cc(C)nc(S/C=C/C(=O)c2ccccc2)n1	15.6
COC(=O)CCC(=O)OC1(C)C(=O)C=C2C=C(C3CC3)N(C3CCCC3)C=C2C1=O (centres unmarked)	3.65
CCOC(=O)Cn1c(=NC(=O)CSC(C)=O)sc2cc(OC)ccc21	7.42
Cc1onc(-c2c(Cl)cccc2Cl)c1C(=O)c1ccccc1	-4.77
OCCCCc1nccc2c1[nH]c1ccccc12	0.0757
COc1ccc(C(O)(CCN2CCOCC2)c2ccccc2)cc1 (centres unmarked)	-6.83
C/C(=C\c1cccc(Br)c1)C(=O)c1c(C)cc(C)[nH]c1=O	11.7
Cc1ccc(-c2csc3ncnc(-n4nnc5ccccc54)c23)cc1	-10.8
COc1cccc2cc(C(=O)c3ccc([N+](=O)[O-])cc3)oc12	1.68
CCCCOC(=O)Nc1nnc(COc2ccccc2)s1	-14.7
CC(C)(C)c1cc(C(=O)NNC(=O)c2ccc(Cl)cc2)no1	-13.9
COc1ccc(CN2C(=O)c3cccc4cccc(c34)C2=O)cc1	1.01
COc1ccc(-c2noc(N3CCC(C(=O)N4CCN(c5ccccn5)CC4)CC3)n2)cc1	-47.5
C=CC[C@@H]1C=C(C)C[C@H](C)C[C@H](OC)[C@H]2O[C@@](O)(C(=O)C(=O)N3CCCC[C@H]3C(=O)O[C@H](/C(C)=C/[C@@H]3CC[C@@H](O)[C@H](OC)C3)[C@H](C)[C@@H](O)CC1=O)[C@H](C)C[C@@H]2OC	-2.51
CCOC(=O)/C=C1\SCC(=O)N1Cc1ccc(Br)cc1	4.9
Cc1ccccc1N(CC(=O)NCCSCc1ccco1)S(C)(=O)=O	6.6
C=CCOc1ccccc1/C=c1\sc2nc(=O)c(C)nn2c1=O	-10.1
